The supplement of paper PMC3724861
The list shows a part of the results.

test system: T1, Caupolican (Caup) homeodomain DNA-binding domain; assay: PBM E-score (8-mer, recovered from the published 9-mer minima) (E-score (dimensionless, -0.5 to 0.5)); Drosophila protein; higher = stronger relative binding preference, active = 0.31 or more
T1 sequence: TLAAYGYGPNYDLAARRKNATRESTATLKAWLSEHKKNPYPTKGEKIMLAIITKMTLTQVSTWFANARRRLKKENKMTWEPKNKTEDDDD
Summary of the method: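 Caup's homeodomain DNA-binding domain (residues 214-303) was made by in vitro transcription and translation and applied at 100 nM to custom-designed protein binding microarrays. Each value is an enrichment score that gives relative binding preference for a short DNA word, with higher meaning stronger. The 8-mer values were recovered from published 9-mer scores, each of which was the minimum of its two constituent 8-mer scores. A cutoff of 0.31 marks candidate sites.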

Sequence	PBM E-score
CTGAGTAA	inactive: 0.0161
ACTCCACG	inactive: -0.122
ATAATAAC	inactive: 0.186
CTAAGCCA	inactive: -0.122
CCTGTAGA	inactive: 0.149
GCCATCTA	inactive: -0.121
AGAATAAG	inactive: 0.101
AGATCAAA	inactive: 0.00943
ATACCCTG	inactive: 0.0156
ACAAACCA	inactive: 0.0875
AACGCGCA	≥ 0.0378
ACTGCTGA	inactive: -0.0341
AAATGAAG	inactive: -0.0254
ATACTTGC	inactive: 0.165
GCGAGTAC	inactive: 0.0649
CCTCTAGA	inactive: -0.109
CTCTGCTC	inactive: -0.135
AGCTTAAT	inactive: 0.012
CGTTGAAG	inactive: -0.0388
ACAGGGGA	inactive: 0.0363
AGTCAGCA	inactive: 0.028
TACGTGGA	inactive: -0.086
CCTTGTCC	inactive: 0.171
GTCGATGA	inactive: 0.0265
GCGAGGTA	inactive: -0.0513

Sequence	PBM E-score
CGATCTGC	inactive: -0.154
GAATACTC	inactive: 0.0382
ACGTGGGG	inactive: -0.178
ATACGAGA	inactive: 0.0776
GACTGGGC	inactive: -0.118
ATACTTCC	inactive: -0.0177
CAACTGTC	inactive: 0.034
CCGAGGCC	inactive: -0.223
AAGTGGAT	inactive: -0.0369
AAACGTCT	inactive: 0.098
CGTTGTCA	inactive: 0.251
CTCCCGGC	inactive: -0.196
TTAGTCAA	inactive: 0.0398
ATGCTCGG	inactive: -0.0911
AGGTCAGA	inactive: -0.0949
GTATCTGA	inactive: 0.137
AGGTCATG	inactive: 0.0878
GATCTGTA	inactive: 0.0986
CGGGTGGC	inactive: -0.215
AGGCTTTG	inactive: -0.163
CCGTGACA	inactive: 0.184
ATACACCC	inactive: 0.138
TGAACGAA	inactive: -0.0399
CAAGTGAA	inactive: 0.0592
ACGACAGG	≥ 0.164

Sequence	PBM E-score
AGGTTCGC	inactive: -0.174
AATATGTA	active: 0.328
TAGAACGA	≥ 0.134
ACTCCGCC	inactive: -0.169
ACTCACCC	inactive: -0.158
CAACGGCG	inactive: -0.182
AGTGTTGC	inactive: 0.143
TAATCGCA	inactive: 0.0941
AGTCAGAG	inactive: -0.0951
AGCGTTGC	inactive: -0.0725
AAGAGAAG	inactive: -0.0176
TAAATGCA	inactive: 0.0979
CATCCCTC	inactive: -0.0768
ATCATTGG	inactive: 0.0563
TAATTAAA	inactive: 0.191
GGAGTCCA	inactive: -0.104
AGGCAGAT	inactive: -0.00918
CCTCCAGA	inactive: -0.113
AATGCGGT	inactive: -0.0245
AGGTTCCA	inactive: -0.0398
GGACTGTA	inactive: 0.0655
CGGCAAAC	inactive: -0.0203
ACATCGCT	inactive: 0.178
ACTCGGGG	inactive: -0.124
ACGAAGTA	inactive: 0.0633

Sequence	PBM E-score
AAAGTGTT	inactive: 0.17
GCTCAGGA	inactive: -0.0793
GGACCACA	inactive: -0.0448
CGTTTTAG	inactive: -0.0741
GATTTAGA	inactive: -0.032
CGCAACCG	inactive: -0.152
GACTTCGA	inactive: -0.0675
GCGAGTTA	inactive: 0.00911
CAGCTTCG	inactive: -0.082
ATAGTAAG	inactive: 0.0934
CACGTACA	inactive: 0.261
AGTCCGCC	inactive: -0.146
AGCGAGGC	inactive: -0.21
CGGGGTGA	inactive: -0.0916
AATCTATA	inactive: 0.116
ATAGGATG	inactive: 0.0744
AAGCGTAC	inactive: 0.0443
CGTAAATC	inactive: -0.00723
AGCCTACG	inactive: -0.0134
CATTGGAC	inactive: 0.0602
ACTGTGCA	inactive: 0.0436
CCTTTTTA	inactive: -0.0158
CGAGGTTA	inactive: 0.0257
TGAGGCCA	inactive: -0.118
CAGTGCTC	inactive: -0.0711

Sequence	PBM E-score
ATTAAGCA	inactive: 0.0138
CGCCCTGC	inactive: -0.202
GAGGGAGA	inactive: -0.155
AAAACCTC	inactive: -0.00612
TAACATGA	active: 0.424
AAGCTTAC	inactive: -0.0272
TCGGTGAA	inactive: -0.0311
CCAAATGG	inactive: -0.069
AAGGCGTA	inactive: -0.0451
CGGTTCGC	inactive: -0.139
AATTTAGT	inactive: 0.132
AGATGGAA	inactive: 0.0415
TGCGGCCA	inactive: -0.177
GTGGTTGA	inactive: 0.0698
GAGGATCA	inactive: -0.0175
CGAGCAGC	inactive: 0.00279
ACGTAGGG	inactive: -0.147
GCTTCGAC	inactive: -0.0958
AGTCAGGG	inactive: -0.0698
ACTATGTC	inactive: 0.302
AGCCTTGC	inactive: -0.22
ATAGGCTG	inactive: -0.00365
AGCCGGAT	inactive: -0.163
CGTACTAC	inactive: 0.129
CACAACAA	inactive: 0.29

Sequence	PBM E-score
AATCTGGT	inactive: 0.0722
AAACTTTA	inactive: 0.0827
CAAGTGGA	inactive: 0.0464
CCTGAGGA	inactive: -0.0674
TGAACCCA	inactive: -0.127
CAGTCGCC	inactive: -0.243
AGTTTTTA	inactive: 0.0431
AGATTCAT	≥ 0.106
AGGAAGCA	inactive: -0.0746
CGTAGAAA	inactive: 0.025
GAAACTTA	inactive: 0.0762
CTTACACC	inactive: 0.0684
AGCCCTAT	inactive: -0.111
AAAAACAT	inactive: 0.296
CTTGGACA	inactive: 0.16
ACCCCTAC	inactive: -0.0349
AATAGGTG	inactive: 0.0711
ACACCCGC	inactive: -0.0419
AAGTATTA	inactive: 0.157
GACCAAAC	inactive: -0.00733
GCTCAGCA	inactive: 0.0118
TAGTCCGA	inactive: -0.0351
ACGCGCCG	inactive: -0.154
AATCCATG	inactive: 0.0904
CCGCGAAC	inactive: -0.151

Sequence	PBM E-score
AACAGTTA	inactive: 0.0683
AGAGGAGC	inactive: -0.148
CACCCGTA	inactive: -0.0759
ACTTCATG	inactive: 0.0721
ATCGTCCG	inactive: 0.00258
AAATTCAT	inactive: 0.135
CCTCATGC	inactive: -0.129
CACCCTGG	inactive: -0.116
ACAGCCAC	inactive: -0.0462
CCGTAACC	inactive: -0.0824
ATTGCAGA	≥ 0.0838
CTCCCATA	inactive: -0.0431
ATCTCTTG	inactive: 0.0726
GAGGGAAA	inactive: -0.12
GCTACGCC	inactive: -0.204
AGGGCACT	inactive: -0.136
CCCAGACG	inactive: -0.265
GAGAACCA	inactive: 0.0238
ATACTCTC	inactive: 0.0807
CCCCCACC	inactive: -0.356
CACGGGAA	inactive: -0.0415
ACCATGGT	inactive: 0.127
CGGTCGTC	inactive: -0.173
CCCCTTTA	inactive: -0.138
ACTCTGAG	inactive: -0.0354

Sequence	PBM E-score
CGGGAAAC	inactive: -0.0623
ATACCCCC	inactive: -0.213
GGCGGAAA	inactive: -0.149
CCTAGGTA	inactive: -0.00584
AGGCTCAG	inactive: -0.0492
CACAGACG	inactive: 0.0361
GTCCTGTA	inactive: 0.164
GACATAAA	inactive: 0.288
GTATCCTA	inactive: 0.109
AGGACATA	≥ 0.284
GGAACTCC	inactive: -0.145
ACTGGACT	inactive: 0.0442
CACCTCGG	inactive: -0.148
TACATGAA	active: 0.383
ATATGCCG	inactive: -0.0171
AGTAGCTC	inactive: -0.0271
GACAGTCA	inactive: -0.0261
TAGTTTCA	inactive: 0.125
GTAAATAA	inactive: 0.143
GTGGCATA	inactive: -0.0214
AGTCGAAA	inactive: 0.0145
GGGTCTGA	inactive: -0.193
CCTACATA	inactive: 0.153
AGGTTCTG	inactive: 0.0327
TACTTGCA	inactive: 0.161

Sequence	PBM E-score
ACGGTACG	inactive: -0.013
ACTTCTAA	inactive: 0.0438
GCCCGTCC	inactive: -0.243
ACTGAGAG	inactive: -0.06
AGCGATTG	inactive: -0.063
GAGAAGAA	inactive: 0.0108
CTCTCCGA	inactive: -0.187
ACACTGCT	inactive: 0.103
GTACCCGA	inactive: 0.0664
AGAAATAG	inactive: 0.106
CTAAATCA	inactive: 0.0485
CATTTTGG	inactive: 0.026
GATACACA	inactive: 0.241
GTATTCAA	inactive: 0.0626
AACAGAAT	inactive: 0.12
ACGGAGCG	inactive: -0.0924
ATGCAGTA	≥ 0.133
ACTTTAAT	inactive: 0.0769
AACTTCCG	inactive: -0.0209
ATCCGCTG	inactive: 0.0352
ACCGTCCC	inactive: -0.167
CTTCTAGA	inactive: -0.0994
GAAAGAGA	inactive: -0.112
